# Source: PubChem BioAssay AID686970 (National Center for Advancing Translational Sciences (NCATS), 2013)
# Among all 360,000 compounds or so, about 6,000 (1.7%) were called active. The shares of active, inactive and inconclusive entries below differ from those in the screen. Calls come from the whole dose curve; as a rule, active = well fitted cell-killing curve with a large enough effect; inconclusive = small, poorly fitted or top-dose-only effect, or effect the other way; inactive = flat fitted curve, though single readings scatter. Potencies of inconclusive entries are left out as doubtful fits.
# Assay: qHTS for induction of synthetic lethality in tumor cells producing 2HG: qHTS for the HT-1080-NT fibrosarcoma cell line;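 note: NT is the 2HG producing partner of a matched IDH1 knockdown line; nearly all actives have a fitted effect of over 55% in size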;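 for activity, negative = less viability: 0% = DMSO-treated cells and -100% = media-only wells without cells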
# Conditions: HT-1080-NT fibrosarcoma viability, CellTiter-Glo ATP luminescence, 48 h; activity, negative = less viability: at 46.1 µM (top of the series) unless noted
# In short: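 Compounds were tested in concentration-response format on HT-1080-NT cells for 48 hours at 37 degrees C. Cell viability came from CellTiter-Glo luminescence; curves were classified by r2, response magnitude and activity.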
# Potency is the fitted concentration of half-maximal effect; tags give direction and shape of the fitted curve.
Compound,Potency,"activity, negative = less viability"
COc1ccccc1-c1nnc2n1N=C(c1ccc(O)c(O)c1)CS2,active: 0.206 µM,
OCCNc1nc(Nc2ccc(Br)cc2)nc2ccccc12,"inconclusive [cytotoxic, single point]",
Cc1ccc(NC(=S)N/N=C/c2c(Cl)cccc2Cl)c(C)c1,"inconclusive [cytotoxic, full curve]",
CC(=O)C1=C(c2cccc([N+](=O)[O-])c2)N(C(C)=O)n2c(C)nnc2S1,"inconclusive [cytotoxic, single point]",
Cc1cc(C)c(C(O)c2ncc(-c3ccccc3F)[nH]2)c(C)c1 (stereo not given),,inconclusive: -32.4% [cytotoxic]
Cn1c(=O)c2c(nc(CN3CCc4ccccc4C3)n2CC(=O)c2ccccc2)n(C)c1=O,"inconclusive [cytotoxic, single point]",
COc1ccc(CC(=O)Nc2ccc(-c3noc(-c4cc(OC)c(OC)c(OC)c4)n3)cc2)cc1,"inconclusive [cytotoxic, partial curve]",
COc1ccc(F)cc1-c1cc(NC(C)=O)c2ncc(-c3cc(OC)c(OC)c(OC)c3)n2c1,,inconclusive: -32.6%
CC(=O)Oc1cccc2c1C(=O)c1c(OC(C)=O)cc(C(=O)O)cc1C2=O,"inconclusive [cytotoxic, full curve]",
COC(=O)c1[nH]c2ccc(C)cc2c1NC(=O)CN1CCN(c2ccc(F)cc2)CC1,inactive,
COc1ccc(CN2CCC2(C)C(=O)Nc2cnc3ccccc3c2)c2ccccc12 (stereo not given),"inconclusive [cytotoxic, single point]",
Cc1ccc2nc(C(F)(F)F)c(C#N)c(N)c2c1,"inconclusive [cytotoxic, single point]",
CCOC1=NC(=C(c2ccccc2)c2ccccc2)OC1=O,inactive,
CCOC(=O)c1[nH]c2c(c1C)C(=O)CC(c1ccco1)C2 (stereo not given),active: 1.03 µM,
COc1cccc(CNc2ncc(C(=O)Nc3cc(OC)c(OC)c(OC)c3)c(C)n2)c1,"inconclusive [cytotoxic, partial curve]",
CCOc1ccc(OCc2ccc(C(=O)N3N=C(C(F)F)CC3(O)C(F)F)o2)cc1 (stereo not given),"inconclusive [cytotoxic, single point]",
CN(c1ccc(OCC(=O)OCC(=O)Nc2ccc([N+](=O)[O-])cc2)cc1)S(=O)(=O)c1cccs1,inactive,
O=c1[nH]nc(Cc2ccc(-c3cccc(Cl)c3)o2)c2ccccc12,"inconclusive [cytotoxic, partial curve]",
COc1cc(OC)cc(C(=O)Nc2ccc(NC(=O)c3ccco3)c(C)c2)c1,"inconclusive [cytotoxic, partial curve, poor fit]",
Cc1cc(=O)oc2c3c(cc(OCC(=O)NCc4ccncc4)c12)OC(C)(C)CC3,inactive,
c1cncc(Nc2c3ccccc3nc3ccccc23)c1,"inconclusive [cytotoxic, single point]",
Cc1cccc(Nc2nc(-c3ccc(O)c(O)c3)cs2)n1,"inconclusive [cytotoxic, single point]",

Compound,Potency,"activity, negative = less viability"
Cc1ccc(CSc2nc3ccncc3n2CC(=O)Nc2cc(C)cc(C)c2)cc1,"inconclusive [cytotoxic, single point]",
COc1ccc2c(c1)c(CC(=O)Nc1cccc(S(N)(=O)=O)c1)c(C)n2C(=O)c1ccc(Cl)cc1,"inconclusive [cytotoxic, partial curve]",
CCN1C(=O)CSc2ccc(C(=O)NCc3ccccc3)cc21,inactive,
O=C(c1cccs1)N1C[C@@H](O)[C@H](n2cc(-c3ccc(F)cc3)nn2)C[C@@H]1c1ccc(Cl)cc1,"inconclusive [cytotoxic, single point]",
COc1ccc(Cl)cc1S(=O)(=O)Nc1ccc2c(c1)n(C)c(=O)n2C,"inconclusive [cytotoxic, single point]",
NS(=O)(=O)c1ccc(CNC(=O)c2cc(-c3cccnc3)nc3ccc(Br)cc23)cc1,"inconclusive [cytotoxic, single point]",
CCOc1ccc2oc(C(=O)NC3CCN(Cc4ccccc4)CC3)c(C)c2c1,"inconclusive [cytotoxic, single point]",
O=C(NCc1ccco1)c1cc2n(n1)C(C(F)(F)F)CC(c1ccc(Br)cc1)N2 (stereo not given),"inconclusive [cytotoxic, single point]",
Cc1cc(C)c(S(=O)(=O)ON2C(=O)c3ccccc3C2=O)cc1C,"inconclusive [cytotoxic, single point]",
COc1ccc(C2OC(=O)c3ccccc3S2)cc1 (stereo not given),"inconclusive [cytotoxic, single point]",
CCOC(=O)c1ccccc1NC(=O)c1cn(-c2ccc(OC)cc2)c(=O)c2ccccc12,"inconclusive [cytotoxic, single point]",
CCCN(CCC)CCCNC(=S)Nc1ccc2nc(N3CCCC3)cc(C)c2c1,"inconclusive [cytotoxic, single point]",
Cc1ccccc1NC(=O)Cn1nnc(C(=O)NCc2ccco2)c1N,"inconclusive [cytotoxic, single point]",
Cc1ccc(C)c(N(CC(=O)NC2CCCC2)C(=O)c2oc(C(C)(C)C)cc2C)c1,"inconclusive [cytotoxic, single point]",
OCC1OC(n2cnc3c(SCc4ccccc4)ncnc32)C(O)C1O (stereo not given),active: 7.31 µM,
C=CCN1c2ccccc2[C@]23C[C@@H](C(=O)OC)N(C(=O)c4cccs4)C2=NC(C(=O)OC)=C(C(=O)OC)[C@H]13,"inconclusive [cytotoxic, single point]",
O=C(c1ccc(NC2=NC3CS(=O)(=O)CC3S2)cc1)N(CCO)Cc1ccccc1 (stereo not given),inactive,
CC(C)(C)c1nc(NCCO)c2nnn(Cc3ccccc3)c2n1,"inconclusive [cytotoxic, partial curve]",
COc1ccc(-n2c(Cc3ccccc3)nnc2SCC(=O)N2CCCc3ccccc32)cc1,inactive,
N#CCCN1CCN(C(=S)c2ccc(-c3ccc(Cl)c(Cl)c3)o2)CC1,"inconclusive [cytotoxic, partial curve]",
N#Cc1nc(-c2cccs2)oc1N1CCN(Cc2ccccc2)CC1,"inconclusive [cytotoxic, single point]",
COc1ccc(-c2nc(-c3ccccc3)c(-c3cccs3)[nH]2)cc1OC,"inconclusive [cytotoxic, single point]",

Compound,Potency,"activity, negative = less viability"
CCCCCCCCC(c1nc2ccccc2[nH]1)N1CCN=C(c2ccccc2)C1=O (stereo not given),"inconclusive [cytotoxic, single point]",
CCN(CC)c1ccc(NC(=O)c2cccc(F)c2)c(C)c1,"inconclusive [cytotoxic, single point]",
Cc1ccc(-c2cc(C(=O)Nc3cc(C)ccc3C)[nH]n2)c(O)c1,"inconclusive [rising, partial curve]",
CCCc1c(C(=O)N/N=C(\C)c2ccccn2)nnn1-c1nonc1N,"inconclusive [cytotoxic, full curve]",
Nc1c(C(=O)N2CCOCC2)sc2nc3c(cc12)CCCC3,"inconclusive [cytotoxic, partial curve]",
O=[N+]([O-])c1cccc(-c2nc3ccccc3s/c2=N/O)c1,"inconclusive [cytotoxic, partial curve]",
CCC(C)NC(=O)c1ccc(N2CC3CC(C2)c2cccc(=O)n2C3)c(NC(=O)c2ccc(Br)o2)c1 (stereo not given),inactive,
COc1ccc(CN2C(=O)C(C)Nc3ncnc(N4CCN(c5ccccn5)CC4)c32)cc1 (stereo not given),"inconclusive [cytotoxic, partial curve, poor fit]",
N#CC(C#N)=C1C=CC=CN1/C(=C\c1ccco1)C(=O)c1ccc(Cl)cc1,"inconclusive [cytotoxic, single point]",
CCCCCOc1ccc(C(=O)CCN2CCOCC2)cc1,"inconclusive [cytotoxic, single point]",
O=C(NCCNS(=O)(=O)c1ccc(C(F)(F)F)cc1)N1CCOCC1,"inconclusive [rising, single point]",
CN(Cc1ccco1)C(=O)c1cc2c(s1)-c1ccc(Cl)cc1S(=O)(=O)C2,inactive,
O=C1NN(c2ccccc2)C(=O)/C1=C\c1ccccc1,"inconclusive [cytotoxic, single point]",
COc1cc(C(=O)N/N=C/c2cc([N+](=O)[O-])cs2)cc(OC)c1OC,active: 2.91 µM,
COc1cccc(CNC(=O)CCNC(=O)C2CCN(S(=O)(=O)c3ccccc3)CC2)c1,inactive,
Cc1ccc(-c2csc3nc[nH]c(=O)c23)cc1,,inconclusive: -7.83% [cytotoxic]
CCOC(=O)C(C)Oc1cccc2c(=O)n(CC(=O)NCc3ccco3)ccc12 (stereo not given),"inconclusive [cytotoxic, full curve]",
Cc1cccc(Nc2n[nH]c(=S)s2)c1C,inactive,
C=C1CC(Cn2cc(Br)c(=O)[nH]c2=O)(c2ccc(-c3ccccc3)cc2)OC1=O (stereo not given),active: 2.31 µM,
Cc1noc(C)c1COc1ccccc1C(=O)N1CCN(S(=O)(=O)c2ccc(F)c(F)c2)CC1,inactive,
CN(Cc1ccccc1)S(=O)(=O)c1ccc2[nH]cc(C(=O)NCC3CCCO3)c(=O)c2c1 (stereo not given),,inconclusive: -30% [cytotoxic]
